# From PubChem BioAssay AID360 (National Center for Advancing Translational Sciences (NCATS), 2006)
# About 550 (1.1%) of roughly 48,000 compounds were called active. Not shown: some 4% with an inconclusive outcome. Cut-off read from the data, not from the text of the source: active = potency below about 15 µM; inconclusive = mostly about 16 µM to 33 µM; inactive = weaker than that. The list shows a part of the results.
# Molecular target: Lysosomal acid glucosylceramidase (Homo sapiens) (UniProt P04062)
# Assay: Glucocerebrosidase;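 note: the screen sought inhibitors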
# Conditions: purified enzyme, resorufin glucoside fluorescence (screen aimed at inhibitors), 20 min
# Outline: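 Compounds titrated against 0.2 nM normal enzyme, 30 uM resorufin beta-D-glucopyranoside substrate, citrate/phosphate buffer with taurocholate and tween-20, pH 5.9. Reaction ran 20 min at room temperature; fluorescence (Ex 548/Em 600) gave AC50.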
# Potency is the fitted concentration of half-maximal effect.
# UniProt P04062, sequence (P04062 whole entry, looked up): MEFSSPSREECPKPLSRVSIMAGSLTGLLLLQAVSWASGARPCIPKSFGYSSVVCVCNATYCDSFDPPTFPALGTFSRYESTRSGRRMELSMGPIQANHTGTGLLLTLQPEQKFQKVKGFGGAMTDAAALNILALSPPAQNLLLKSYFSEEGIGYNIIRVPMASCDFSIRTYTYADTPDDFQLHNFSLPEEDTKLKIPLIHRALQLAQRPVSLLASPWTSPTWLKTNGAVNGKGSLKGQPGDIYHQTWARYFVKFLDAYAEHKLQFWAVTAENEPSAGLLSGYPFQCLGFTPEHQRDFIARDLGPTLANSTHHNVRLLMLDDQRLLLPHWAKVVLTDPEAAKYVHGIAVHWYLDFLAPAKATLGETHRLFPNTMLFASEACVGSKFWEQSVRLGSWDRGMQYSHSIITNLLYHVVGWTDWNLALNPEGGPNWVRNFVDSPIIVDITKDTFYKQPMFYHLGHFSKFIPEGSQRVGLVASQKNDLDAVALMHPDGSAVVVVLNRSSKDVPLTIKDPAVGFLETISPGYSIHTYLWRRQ
row,Compound,Potency
1,O=C(NCc1ccc2c(c1)OCO2)C1CCCN1C(=O)Nc1ccc(F)cc1 (stereo not given),inactive: > 76.9 µM
2,O=C(OCCCC(=O)N1CCOCC1)c1ccccc1,inactive: > 76.9 µM
3,Brc1ccc(-c2cnc(-c3cccs3)o2)cc1,inactive: > 76.9 µM
4,CC(=O)c1cc(-c2ccccc2)[nH]c1N1CCCC1,inactive: > 76.9 µM
5,CCNC(=O)CC1C(=O)N(c2ccc(F)cc2)C(=O)N1Cc1ccccn1 (stereo not given),inactive: > 76.9 µM
6,O=C(CNC(=O)c1cccs1)NC1=NCCS1,inactive: > 76.9 µM
7,O=C1N(CCCCN2C(=O)C3(OCCO3)c3ccccc32)c2ccccc2C12OCCO2,inactive: > 76.9 µM
8,COc1ccc(OCCCON2C(=O)c3ccccc3C2=O)cc1,inactive: > 76.9 µM
9,CC1(c2ccc(OC(F)F)cc2)NC(=O)N(CC(=O)Nc2ccc3c(c2)OCO3)C1=O (stereo not given),inactive: > 76.9 µM
10,Cc1cc(N2CCN(C3CCCC3)CC2)n2nc(C)c(-c3ccccc3)c2n1,inactive: > 76.9 µM
11,C=CCc1ccccc1OCC(O)CN1CCN(c2ccccc2F)CC1 (stereo not given),inactive: > 76.9 µM
12,Clc1cc(Br)ccc1OCCn1ccnc1,inactive: > 76.9 µM
13,O=C(Cn1cnc2c(cnn2-c2ccccc2)c1=O)NCCc1ccccc1,inactive: > 76.9 µM
14,CN1CCN(CCCNC(=O)C2CCN(c3nnc(-n4cccc4)s3)CC2)CC1,inactive: > 76.9 µM
15,CCc1ccccc1NC(=O)CSc1nnc([C@@H](NC(=O)OC(C)(C)C)C(C)CC)o1 (stereo not given in full),inactive: > 76.9 µM
16,CCc1ccc(-c2cn(-c3nc(C)cc(C)n3)c(=N)o2)cc1,inactive
17,CCOC(=O)N1CCN(Cc2nc(-c3ccc(OC)cc3)no2)CC1,inactive: > 76.9 µM
18,Clc1ccc(CSc2nnc(-c3ccccn3)n2Cc2ccco2)c(Cl)c1,inactive: > 76.9 µM
19,COc1ccccc1NC(=O)C1=C(C)Nc2ncnn2C1c1cccs1 (stereo not given),inactive: > 76.9 µM
20,CCN(C(=O)COc1cc(=O)n(C)c2ccccc12)c1cccc(Cl)c1,inactive: > 76.9 µM
21,CCOc1ccc(CSC2=NCCN2)cc1Cl,active: 8.36 µM
22,Cc1cccc(Nc2ccccc2)c1,inactive: > 76.9 µM
23,Cc1cccc(OCCC(=O)Nc2c(C)n(C)n(-c3ccccc3)c2=O)c1,inactive: > 76.9 µM

row,Compound,Potency
1,Cc1ccc(-c2nn3c(C)nnc3s2)cc1NC(=O)c1cccnc1,inactive: > 76.9 µM
2,O=C(CCn1c(=S)[nH]c2ccccc2c1=O)NCCCN1CCCC1=O,inactive: > 76.9 µM
3,CCOC(=O)C1CCN(C(=O)COc2ccc(S(=O)(=O)NC(C)(C)C)cc2)CC1,inactive: > 76.9 µM
4,CCOC(=O)C1=C(N)N2C(=O)C(C)SC2=C(C(=O)OCC)C1c1ccccc1 (stereo not given),inactive: > 76.9 µM
5,FC(F)(F)c1ccc(N2CCN(c3ncnc4c3nnn4Cc3ccccc3)CC2)nc1,inactive: > 76.9 µM
6,Cc1cc(NC(=O)c2c(-c3ccccc3Cl)noc2C)no1,inactive: > 76.9 µM
7,Cc1cc(C)nc(-n2nc(C)cc2NC(=O)CN2CCCC(C)C2)n1 (stereo not given),inactive: > 76.9 µM
8,COc1ccc(CCN/C=C2/CC(=O)NC2=O)cc1OC,inactive: > 76.9 µM
9,CCOC(=O)c1cccc(C(=O)OCC)n1,inactive: > 76.9 µM
10,CN(C)c1ccc(P(=O)(OC2CCCCC2)C(O)c2cccnc2)cc1 (stereo not given),inactive: > 76.9 µM
11,CCOc1cc(-c2nc(-c3cc(OC)c(OC)c(OC)c3)no2)cc(OCC)c1OCC,inactive: > 76.9 µM
12,O=C(Cn1c(-c2ccc(Cl)cc2)noc1=O)N1CCN(c2ccccc2F)CC1,inactive: > 76.9 µM
13,CCOC(=O)N1CCN(c2nc(C)c3c(n2)CCCC3=O)CC1,inactive: > 76.9 µM
14,O=C(CSc1ccc2c(c1)OCCO2)Nc1ccc(Cl)cn1,inactive: > 76.9 µM
15,CC(C)C(=O)Nc1nnc(SCC(=O)NCc2cccs2)s1,inactive: > 76.9 µM
16,Cc1ccc(NC(=O)c2oc3c(c2C)C(=O)CC(C)(C)C3)cc1,inactive: > 76.9 µM
17,O=C(CSc1nc2ccncc2[nH]1)Nc1ccccc1C(F)(F)F,inactive
18,CCCNS(=O)(=O)c1ccc(OCC(=O)N2CCC(C(=O)OCC)CC2)cc1,inactive: > 76.9 µM
19,Cc1ccc(C(=O)n2cnnc2N)cc1C,inactive: > 76.9 µM
20,c1coc(Cn2nnnc2CN2CCN(C3CCCC3)CC2)c1,inactive: > 76.9 µM
21,CCOC(=O)c1oc2ccccc2c1NC(=O)c1cccc(OC)c1OC,inactive: > 76.9 µM
22,CC(=O)NC1(C(F)(F)F)C(=O)Nc2c1c(=O)[nH]c(=O)n2Cc1ccco1 (stereo not given),inactive: > 76.9 µM
23,N#Cc1ccc2ccn(CC(=O)NCc3ccccc3)c2c1,inactive: > 76.9 µM

row,Compound,Potency
1,COCCNC(=O)C(c1cccs1)N(C(=O)Cn1nnc2ccccc21)c1ccccc1 (stereo not given),inactive: > 76.9 µM
2,COCCNC(=O)CSc1nc2ccccc2c2nc(C)nn12,inactive: > 76.9 µM
3,Cc1cc(NS(=O)(=O)c2ccc(NC(=O)CCCOc3ccccc3)cc2)no1,inactive: > 76.9 µM
4,CCOC(=O)c1cnc(SCc2ccccc2)nc1N,inactive: > 76.9 µM
5,O=C(Nc1nnc(C23CC4CC(CC(C4)C2)C3)s1)c1ccco1,inactive: > 76.9 µM
6,COCCCNc1nc2c(c(=O)[nH]c(=O)n2C)n1CCCc1ccccc1,inactive: > 76.9 µM
7,CC(C)(C)N1C(=O)c2ccc(C(=O)O)cc2C1=O,inactive: > 76.9 µM
8,CCCC(=O)Nc1ccc(NC(=O)c2ccco2)c(OC)c1,inactive: > 76.9 µM
9,CNC(=O)CN(c1cccc(Br)c1)S(C)(=O)=O,inactive: > 76.9 µM
10,CCOC(=O)c1ccc(N2C(=O)c3n[nH]c(C)c3C2c2ccc(O)cc2)cc1 (stereo not given),inactive: > 76.9 µM
11,COC(=O)c1cccc(NS(=O)(=O)c2cccs2)c1C,inactive: > 76.9 µM
12,COc1ccc(CNc2nc(SCC(=O)NCc3ccco3)nc3ccccc23)cc1,inactive: > 76.9 µM
13,Cc1cccc(C)c1NC(=O)CSCCO,inactive: > 76.9 µM
14,NC(=O)CSc1nnc(Cc2ccc3c(c2)OCO3)n1C1CCCCC1,inactive: > 76.9 µM
15,O=C(Nc1c(C(=O)N2CCOCC2)cnn1-c1ccccc1)c1ccco1,inactive: > 76.9 µM
16,CCOc1cc(S(=O)(=O)NCc2ccc3c(c2)OCO3)ccc1F,inactive: > 76.9 µM
17,O=C(O)CCC(=O)N1CCc2cc(S(=O)(=O)NCc3cccs3)ccc21,inactive: > 76.9 µM
18,CCn1c(=O)cc(OCC(=O)NCCCN2CC(C)CC(C)C2)c2ccccc21 (stereo not given),inactive: > 76.9 µM
19,CCCn1nc(NS(C)(=O)=O)c2cc3cccc(C)c3nc21,inactive: > 76.9 µM
20,COC(=O)c1ccccc1NC(=O)CN1CCC(NC(=O)c2ccccc2C)CC1,inactive: > 76.9 µM
21,CC(=O)c1c(N2CCOCC2)nc(=S)n(-c2cc(C)ccc2C)c1C,inactive: > 76.9 µM
22,CC(Oc1ccc(Br)cc1)C(=O)N1CCc2ccccc21 (stereo not given),inactive: > 76.9 µM
23,c1cncc(C(c2nnnn2C2CCCC2)N2CCCC2)c1 (stereo not given),inactive: > 76.9 µM

row,Compound,Potency
1,O=C(CSCc1n[nH]c(=O)[nH]1)NCCOc1cccc(Oc2ccccc2)c1,inactive: > 76.9 µM
2,CC1CCCCN1CCCn1c(=S)[nH]c2ccccc2c1=O (stereo not given),inactive: > 76.9 µM
3,Cc1nnc(NC(=O)CSc2nnc(CCc3nc4ccccc4[nH]3)n2C)s1,inactive: > 76.9 µM
4,COc1ccc(CN(Cc2cccnc2)S(=O)(=O)c2ccc(-n3cnnn3)c(C)c2)cc1OC,inactive: > 76.9 µM
5,O=C(Nc1ccccc1)N1CCC(C(=O)N2CCN(S(=O)(=O)c3cccc(F)c3)CC2)CC1,inactive: > 76.9 µM
6,COc1ccc(Cl)cc1N1C(=O)[C@@H]2C(c3cccc(OC)c3OC)=NO[C@@H]2C1=O,inactive: > 76.9 µM
7,C#CCN1C(=O)C(O)(CC(=O)c2cccc(OC)c2)c2ccccc21 (stereo not given),inactive: > 76.9 µM
8,COc1ccc(S(=O)(=O)NC(CC(=O)NCCc2ccc(OC)c(OC)c2)c2ccco2)cc1 (stereo not given),inactive: > 76.9 µM
9,CC(=O)c1ccc(S(=O)(=O)N(Cc2cc3cc4c(cc3[nH]c2=O)OCCO4)CC2CCCO2)cc1 (stereo not given),inactive: > 76.9 µM
10,COc1ccc(C/C(O)=C(\C#N)c2nc3ccccc3s2)cc1,inactive: > 76.9 µM
11,CCc1ccc(NS(=O)(=O)c2ccc3[nH]cc(C(=O)N4CCCCC4)c(=O)c3c2)cc1,inactive: > 76.9 µM
12,CCOC(=O)C(CC)Sc1nc(-c2ccc(OC)cc2)nc2c1c(=O)n(C)c(=O)n2C (stereo not given),inactive: > 76.9 µM
13,N#Cc1c2n(c(=O)[nH]c1=O)CCCCC2,inactive: > 76.9 µM
14,COC(=O)c1c(NC(=O)CN2CCC(C(N)=O)CC2)c2c(C)cccc2n1C,inactive: > 76.9 µM
15,CCOC(=O)c1c(CN(C)C)n(C)c2ccc(OC(C)=O)cc12,inactive: > 76.9 µM
16,CCCCn1c(SCC(=O)NCc2ccccc2)nc2ccc(N3CCOCC3)cc2c1=O,inactive: > 76.9 µM
17,CCN1C2=C(C(=O)CCC2)C(c2ccc(O)cc2)C2=C1CCCC2=O,inactive: > 76.9 µM
18,O=S(=O)(Nc1ccc2c(c1)OCCO2)c1cnc[nH]1,inactive: > 76.9 µM
19,CC(C)(C)NC(=O)C(c1ccco1)N(C(=O)c1ccc(CN2CCOCC2)o1)c1ccccc1 (stereo not given),inactive: > 76.9 µM
20,C=CCn1c(-c2ccccc2)c[nH]c1=S,inactive: > 76.9 µM
21,CCOc1ccc2c(c1)cc(CN(C(=O)CC)C1CCCCC1)c1nnnn12,inactive: > 76.9 µM
